Reference: PubChem BioAssay AID1963576 (National Center for Advancing Translational Sciences (NCATS), 2024)
Out of some 46,000 compounds screened, about 60 (0.1%) were called active. Roughly 3% stayed inconclusive and do not appear here. Calls follow the shape of the dose curve; as a rule, active = well fitted inhibition curve with a large enough effect; inconclusive = small, poorly fitted or top-dose-only effect; inactive = no such curve, though single readings can be large or run the other way. The list shows a part of the results.

Experiment: Primary qHTS assay for Inhibitors of ovarian cancer metastasis using an organotypic tumor microenvironment (TME) model. Also: nearly all actives have a fitted effect of over 65% in size.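 As to activity change, negative = inhibition: plate controls were DMSO wells for no effect and tomatine positive control wells for full effect.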
Details: SKOV3ip1-GFP adhesion/invasion on 3D omental model, fluorescence; series mostly up to 45.8 µM; activity change, negative = inhibition: at the top concentration
In short: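 qHTS, 4-pt dose (0.36-46 umol/L); SKOV3ip1-GFP, 1,200 cells/well, no FBS; primary omental fibroblast/mesothelial co-culture 48 h pre-grown; 2 h RT + 16 h 37 C; PBS wash, 4% PFA; GFP count 488/509 nm.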

Activity change, negative = inhibition, inactive:
Cc1ccc(CNC(=O)Cn2c(=O)ccc3cc(S(=O)(=O)N4CCC(C)CC4)ccc32)cc1 14.9%, CCOC(=O)c1c(NC(=O)c2cc(OCC)c(OCC)c(OCC)c2)sc2c1CCCCC2 3.76%, COc1ccc(CNCCCSc2nnnn2-c2ccccc2)cc1 0.533%, CC1CCc2c(sc3nnn(CCCCOc4ccc(Cl)cc4)c(=O)c23)C1 (stereo not drawn) -7.96%, CCc1ccc(C2c3c(oc4ccc(F)cc4c3=O)C(=O)N2CCc2ccc(OC)cc2)cc1 (stereo not drawn) 1.56%, Cc1cc(=O)[nH]c2nnc(SCc3c(F)cccc3Cl)n12 6.03%, Cc1ccc(C2CCN(C(=O)Nc3ccc(Cl)cc3)C2)cc1 (stereo not drawn) 9.21%, Cc1nc2sccn2c(=O)c1S(=O)(=O)Nc1ccc(N2CCOCC2)cc1 9.43%, COc1ccc(N(CC(C)C)S(=O)(=O)c2nnc(NC(=O)c3cccs3)s2)cc1 -9.37%, CSc1cccc(NC(=O)C2CCN(S(=O)(=O)c3ccc4c(c3)CCCN4C(=O)C3CCC3)CC2)c1 2.46%, Cc1ccc(OCc2nc(-c3ccc(C(=O)N4CCN(c5cccc(C(F)(F)F)c5)CC4)cc3)oc2C)cc1 11.8%, CCOc1ccc2c(c1)sc1nc(=O)n(-c3ccc(Cl)c(Cl)c3)c(=O)n12 0.0956%, Cc1ccc(C(=O)Nc2ccccc2)cc1S(=O)(=O)Nc1ccc(Br)cc1 4.29%, Cc1ccc(C(=O)N2CCc3cc(CNC(=O)c4ccc(Br)cc4)ccc32)cc1 5.24%, COc1ccc(Cl)cc1NC(=O)CSc1nc2ccccc2c2nc(-c3ccccc3)nn12 6.87%, Cc1cccc(NC(=O)c2ccc3c(O)c(S(=O)(=O)c4ccccc4)c(=O)[nH]c3c2)c1C 2.02%, Cc1cccc(C)c1NC(=O)C(=O)NCC(c1ccc2c(c1)OCO2)N1CCOCC1 (stereo not drawn) -0.643%, COc1ccc(S(=O)(=O)N2CCN(Cc3ccc4c(c3)OCO4)CC2)cc1C 7.33%, O=S(=O)(c1ccc(-c2cc(C(F)(F)F)on2)s1)N1CCN(c2ccccc2)CC1 3.46%, COCCNC(=O)CCn1c(=O)c2cc(OC)c(OC)cc2n(CC(=O)Nc2ccccc2C)c1=O 24.8%, CCc1ccc(S(=O)(=O)c2nnn3c2nc(Nc2ccc(C)c(Cl)c2)c2sccc23)cc1 0.258%, O=C(Cn1ncn2nc(-c3cccs3)cc2c1=O)NCc1ccc(Cl)cc1 0.974%, CCOC(=O)c1c(NC(=O)COc2ccc(Br)cc2)sc2c1CCCC2 10.3%, CCc1ccccc1NC(=O)Nc1cc(C(=O)NCc2cccc(F)c2)ccc1N1CCCC1 -15.8%, CC(=O)Nc1cc(C(=O)NCc2ccc(C)cc2)ccc1S(=O)(=O)c1ccc(Cl)cc1 -9.92%, CC(C)CNC(=O)C(=O)Nc1c2c(nn1-c1ccccc1)CS(=O)(=O)C2 6.96%, CCn1c(SCc2cccc(Br)c2)nnc1-c1nonc1NC(C)=O 0.656%, Cc1cc(C)n(-c2nc3cc(Cl)ccc3nc2Nc2ccc(C)c(F)c2)n1 -0.812%, CCOc1ccccc1NC(=O)N1c2ccccc2Sc2ccccc21 -5.82%, COc1ccc(Cn2c(CCC(=O)Nc3ccc(C)cc3)nc3cccnc32)cc1 3.17%, Cc1cccc(-n2ncc(C(=O)N3CCN(Cc4ccccc4)CC3)c2C2CCN(C(=O)OC(C)(C)C)CC2)c1 2.62%, COC(=O)CN1C(=O)CSc2ccc(S(=O)(=O)Nc3ccc(C(C)=O)cc3)cc21 -7.58%, CCOc1ccc(C(=O)c2cn(CC(=O)Nc3ccc4c(c3)OCCO4)c3ccc(F)cc3c2=O)cc1 -2.15%, CC(C)CCNS(=O)(=O)c1ccc(N2CCCCS2(=O)=O)cc1 4.55%, COc1ccc(NC(=O)Cn2c(=O)c3cc(Cl)ccc3n3nncc23)cc1 -9.89%, CC1CCN(C(=O)CSc2nnc(-c3ccccc3)o2)CC1 -18.4%, Cc1cccc(C)c1OC(=O)CSc1nnc(CNC(=O)c2ccccc2)o1 0.41%, CN(C(=O)CSc1nc(C2CCCC2)nc2c1c(=O)n(C)c(=O)n2C)c1ccccc1 -29.2%, O=C(CN1CCCN(S(=O)(=O)c2ccc(Br)cc2)CC1)Nc1cccc(C(F)(F)F)c1 11.2%, Cc1cc(C)c(NS(=O)(=O)c2cc(-c3onc(C)c3C)ccc2C)c(C)c1 -8.98%, CC(C)COC(=O)Cn1nnc2sc(-c3ccccc3)cc2c1=O 0.178%, CCCc1nnc(NC(=O)Cc2coc3ccc(C(C)C)cc23)s1 -21.1%, O=C(CSc1oc(-c2ccccc2)nc1S(=O)(=O)c1ccc(Cl)cc1)NC1CCCCC1 -7.06%, COc1ccc(-n2nnc(-c3nsc(NC(=O)c4ccc(C)c(C)c4)n3)c2C)cc1Cl 1.91%, O=C(Nc1cccc(C(F)(F)F)c1)c1cc(S(=O)(=O)N2CCCC2)c[nH]1 8.3%, O=C(C1CCC(Cn2c(=O)c3sccc3n(Cc3ccccc3)c2=O)CC1)N1CCCCC1 (stereo not drawn) 11.4%, Cc1ccc(C)c(N2CCN(C(=O)CCNS(=O)(=O)c3ccc4c(c3)CCN4C(=O)C3CC3)CC2)c1 -3.58%, CC(C)C(=O)Oc1ccc(CO)cc1[C@H](CCN(C(C)C)C(C)C)c1ccccc1 -13.7%, Cc1ccc(-c2cc(-c3coc4ccc(Cl)cc4c3=O)c3c(n2)-c2ccccc2OC3)cc1 1.84%, O=C(NCc1ccccc1Cl)c1cnc(N2CCOCC2)c2ccccc12 25%, CCN(Cc1ccccc1)Cc1c(O)ccc2c(=O)c(-c3ccc(Cl)cc3)coc12 -19.3%, CCOc1ccc(NC(=O)CCc2nc3cccnc3n2-c2ccccc2)cc1 -6.58%, COc1ccc(OC)c(NC(=O)CC2C(=O)NCCN2C(=O)C(F)(F)F)c1 (stereo not drawn) -15.8%, CCc1cccc(CC)c1NC(=O)C(Cc1ccccc1)NS(=O)(=O)c1cccc2nsnc12 (stereo not drawn) 1.54%, O=C(Nc1nc2ccc(Cl)cc2s1)c1cc(=O)c2ccccc2o1 1.58%, CCc1ccc(NC(=O)CSc2nc3c(oc4ccccc43)c(=O)n2-c2cccc(C)c2)cc1 -6.61%, COc1ccc(S(=O)(=O)NCCS(=O)(=O)N2CCN(c3ccccc3)CC2)cc1OC 15.4%, COc1ccc(NC(=O)c2oc3ccccc3c2NC(=O)C23CC4CC(CC(C4)C2)C3)c(OC)c1 -4.87%, COc1ccc2c(c1)c(CC(=O)Nc1ccc(C(C)=O)cc1)c(C)n2C(=O)c1ccc(Cl)cc1 0.0448%, CCN1C(C(=O)c2ccccc2)=C(OC(=O)COc2ccc(OC)cc2)c2ccccc2S1(=O)=O -8.34%, CN1CCc2c(sc(NC(=O)CSc3ccc(F)cc3)c2-c2nc3ccccc3s2)C1 -15.8%, COc1cccc(C(=O)NC(=NCCc2c[nH]c3ccc(OC)cc23)Nc2nc(C)cc(C)n2)c1 4.22%, CCc1cnc2c(c1SCc1ccccc1C)c(=O)n(C)c(=O)n2C 4.37%, Cc1ccc(NC(=O)c2ccc(CN3CCN(C)CC3)cc2)cc1Nc1nccc(-c2cccnc2)n1 4.52%, Cc1ccc(CNC(=O)CCCCCn2c(=O)c3sccc3n(CC(=O)Nc3ccc(C)c(F)c3)c2=O)cc1 3.66%, COc1ccc(-c2cn3nc(N4CCCC(C(=O)Nc5cccc(OC)c5)C4)sc3n2)cc1 (stereo not drawn) -4.43%, COc1cc2c(cc1OC)n(CC(=O)c1cccc(Cl)c1)c(=O)n1nc(CCn3nc(C)cc3C)nc21 29.5%, O=C(NCc1cccnc1)C(=O)NCC(c1cccnc1)N1CCN(c2ccc(F)cc2)CC1 (stereo not drawn) -31.2%, Cc1ccccc1C(=O)Nc1sc2c(c1C(=O)N1CCCCC1)CCC(C)C2 (stereo not drawn) -27.5%

outcome, inactive:
COc1ccc(S(=O)(=O)NCCc2sc(-c3cccnc3)nc2C)c(F)c1, Cc1c(Cl)cccc1NC(=O)CNS(=O)(=O)c1cccs1, CCOC(=O)CCn1cnc2onc(-c3cc(OC)ccc3Cl)c2c1=O, Cc1ccccc1-c1nc(CS(=O)(=O)CC(=O)NCCc2ccccc2)c(C)o1, CCOC(=O)c1cnc2c(Cl)cc(Cl)cc2c1Nc1cc(C(=O)O)ccc1C, CS(=O)(=O)NCC(c1ccco1)N1CCN(c2ccc(F)cc2)CC1 (stereo not drawn), COCCCn1c(=N)c(C(=O)NCc2ccco2)cc2c(=O)n3cccc(C)c3nc21, CCOC(=O)CN1C(C(=O)c2ccccc2)=C(OC(=O)C(C)(C)C)c2ccccc2S1(=O)=O, CSc1cccc(NC(=O)Cn2c(=O)n(Cc3ccccc3)c(=O)c3sc4ccccc4c32)c1, Cc1ccc(-n2ncc(C(=O)NCCN3CCCC3)c2C2CCN(C(=O)OC(C)(C)C)CC2)cc1, Cc1cc(C)c(NC(=O)c2cc(S(=O)(=O)NCCC3=CCCCC3)ccc2F)c(C)c1, CCn1ccc2cc(S(=O)(=O)N3CCC(C(=O)NCc4cccc(Cl)c4)CC3)ccc21, Cc1ccc(NC(=O)Cn2nnc3sc4c(c3c2=O)CCC(C)C4)cc1 (stereo not drawn), CCOc1ccc(N(C)S(=O)(=O)c2c(C(=O)N3CCC(C)CC3)c(C)n(C)c2C)cc1, Cc1ccc(NC(=O)c2cnc(SCC(=O)N3CCOCC3)n(C)c2=O)cc1C, CC1CCN(C(=O)c2ccc3c(c2)N(Cc2ccccc2)C(=O)c2ccccc2S3(=O)=O)CC1, COCCCNC(=O)CSc1nc2cc3c(cc2c(=O)n1CCCCCC(=O)NCc1ccc(OC)cc1)OCO3, Cc1cccc(N2CCN(C(=O)c3ccc4c(Cl)c5c(nc4c3)CCCC5)CC2C)c1 (stereo not drawn), COc1ccc(NC(=O)Cn2nnc(C(=O)NCc3ccc4c(c3)OCO4)c2N)cc1, COc1ccccc1-c1noc(-c2ccc(NCc3ccco3)c([N+](=O)[O-])c2)n1, Cc1ccc2cccc(NC(=O)c3cccc4c(Cl)cccc34)c2n1, Cc1ccc(NC(=O)c2oc3ccccc3c2NC(=O)c2ccc(F)c(F)c2)cc1, CC(C)CN(CCCNC(=O)c1cc(=O)[nH]c2ccc(S(=O)(=O)N3CCCC3)cc12)CC(C)C, CCOCCCNC(=O)c1cc(Sc2cccc(Cl)c2)nc2ccccc12
